Measurements reported in PubChem BioAssay AID1345082 (National Center for Advancing Translational Sciences (NCATS), 2018).
In all, about 94,000 compounds went through this assay and about 4,000 (4.3%) were called active. Inconclusive results, whose numbers are uncertain, are shown with a selection of clear calls. Calls come from the whole dose curve; as a rule, active = well fitted inhibition curve with a large enough effect; inconclusive = small, poorly fitted or top-dose-only effect; inactive = no such curve, though single readings can be large or run the other way. Potencies of inconclusive entries are doubtful fits and often do not repeat.

test: Cytotoxic Profiling in NIH 3T3 Cell Line of Diverse Libraries Using Quantitative High-Throughput Screening; details: NIH 3T3 viability, CellTiter-Glo ATP luminescence, 48-72 h; series mostly up to 96.7 µM; note: nearly all actives have a fitted effect of over 55% in size
Outline: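 Luminescent ATP readout (CellTiter-Glo, 10 min RT) after 48 or 72 hr compound exposure of NIH 3T3 cells seeded at 400 cells/well in 1536-well format; quantitative HTS.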
Potency is the fitted concentration of half-maximal effect; tags give direction and shape of the fitted curve.

SMILES | Potency
NCC(=O)N1Cc2ccccc2CC2(CCCCN2CC2CCOCC2)C1 (stereo not drawn) | inactive
Cc1cc(C)cc(-c2ccccc2CN)c1 | inconclusive: 50.1 µM [inhibitor, partial curve, poor fit]
COc1ccc(OCc2nc(C3CN(C(=O)C4(c5ccc(OC)cc5)CC4)C3)no2)cc1 | inconclusive: 44.7 µM [inhibitor, partial curve, poor fit]
O=C(NCc1ccc(F)cc1)c1cnc2c(c1)N([S+](=O)([O-])c1cccnc1)CCC2 | inconclusive: 79.4 µM [inhibitor, partial curve, poor fit]
COc1ccc(Cn2c(=O)c(C(=O)N3CCN(C(=O)Nc4ccccc4F)CC3)nc3cccnc32)cc1 | inconclusive: 50.1 µM [inhibitor, partial curve, poor fit]
CN1CCN(C(=O)CC2CCCN(c3cnn(CC4CC4)c(=O)c3)C2)CC1 (stereo not drawn) | inactive
Cc1ccccc1C(=O)N1CCCN(c2ccnc3ccnn23)CC1 | inconclusive: 56.2 µM [inhibitor, partial curve, poor fit]
O=C(Nc1ccccc1)N1CCN2C(=O)N(Cc3ccc(F)cc3)C[C@H]2C1 | inconclusive: 100 µM [inhibitor, partial curve]
COCc1ccc2c(c1)c(OC(C)(C)C(=O)Nc1cccnc1)nn2Cc1cccnc1 | inconclusive: 100 µM [inhibitor, single point]
CN(C/C=C/c1ccccc1)C(=O)c1ccc(C2CCCNC2)cc1 (stereo not drawn) | inconclusive: 44.7 µM [inhibitor, partial curve, poor fit]
Cc1nc(N2CCC(NC(=O)c3ccc4ccccc4n3)CC2)cc(C(F)(F)F)n1 | inconclusive: 39.8 µM [inhibitor, partial curve, poor fit]
O=C(c1ccncc1)N1CCC(n2cc(-c3nc(-c4ccccc4)no3)nn2)CC1 | active: 31.6 µM
O=C(Cc1ccccn1)NC1CCN(Cc2cccc(-c3cccs3)c2)CC1 | inconclusive: 44.7 µM [inhibitor, partial curve, poor fit]
COCCN1C(=O)c2ccccc2C(C(=O)Nc2nc(C)c(C)s2)C12CCCC2 (stereo not drawn) | inconclusive: 70.8 µM [inhibitor, single point]
O=C(c1cc(F)ccc1F)N1CC(Oc2cccc(-c3nc(-c4ccccc4)no3)c2)C1 | inconclusive: 44.7 µM [inhibitor, partial curve, poor fit]
Cc1ncoc1C(=O)NC1CCc2nnc(C3CC3)n2CC1 (stereo not drawn) | inactive
COc1ccc(OC)c(S(=O)(=O)N[C@H]2CO[C@H]3[C@@H]2OC[C@H]3OC(=O)Nc2cccc(C(F)(F)F)c2)c1 | inconclusive: 35.5 µM [inhibitor, full curve, poor fit]
COc1ccccc1-c1cccc(C(=O)N2CCN(C(=O)Cc3cccc(Cl)c3)CC2)c1 | inconclusive: 50.1 µM [inhibitor, partial curve, poor fit]
COc1ccc(-c2cc(-c3cccnc3)cn3cncc23)cc1 | active: 39.8 µM

SMILES | Potency
O=C(NC1CCCCC1)N1C[C@@H]2C[C@H](C1)c1c(-c3ccc4ccccc4c3)ccc(=O)n1C2 | inconclusive: 31.6 µM [inhibitor, full curve]
O=C1Nc2ccc(-c3ccccc3F)cc2C(=O)N2CCN(C(=O)c3ccccc3)C[C@H]12 | inconclusive: 89.1 µM [inhibitor, partial curve, poor fit]
COc1cccc(C(=O)NCC2(COc3cnccn3)C[C@@H](O)[C@@H](O)C2)c1 (stereo partly drawn) | inactive
COc1ccc(NC(=O)C2CCN(c3cc(C(F)(F)F)ncn3)CC2)cc1Cl | inconclusive: 14.1 µM [inhibitor, full curve]
Cc1ccc(C(=O)N2CCC3(CC2)NC(=O)N(c2ccccc2)N3)s1 | inconclusive: 35.5 µM [inhibitor, partial curve, poor fit]
CN1CCCN(C(=O)c2ccc(F)cc2)c2ccccc21 | inconclusive: 39.8 µM [inhibitor, partial curve, poor fit]
Cc1nn(-c2ccccc2)c2c1C(C1CC1)N(C1CCN(C(=O)c3ccc(Cl)nc3)C1)C2=O (stereo not drawn) | inconclusive: 44.7 µM [inhibitor, partial curve, poor fit]
CCN(CC)C(=O)C1CCCCC(=O)N1C (stereo not drawn) | inactive
COc1cccc(C(=O)N2CCCN(c3ccc4nnc(C5CC5)n4n3)CC2)c1 | inactive
CC(C)NC(=O)c1cnc2c(c1)N(C(=O)Cc1cn(C)c3ccccc13)CCC2 | inconclusive: 89.1 µM [inhibitor, partial curve, poor fit]
Cc1nnc2ccc(N3CCCC(NC(=O)c4ccc(F)cc4)C3)nn12 (stereo not drawn) | inconclusive: 63.1 µM [inhibitor, partial curve, poor fit]
O=C(Nc1ccc(Cl)cc1)N1CCN(Cc2ccccc2-c2ccccc2F)CC1 | inconclusive: 35.5 µM [inhibitor, partial curve]
O=C(NCC1CC1)c1ccc2c(c1)C1(CCN(CC3CC3)C1)CN2Cc1ccccc1 (stereo not drawn) | active: 79.4 µM
N#Cc1cccc(NC(=O)N[C@H]2CO[C@H]3[C@@H]2OC[C@@H]3Nc2nccc(C3CCCC3)n2)c1 | inconclusive: 112 µM [inhibitor, partial curve, poor fit]
Cc1c(CN2CC(=O)N(CC(C)C)CC(OCc3ccccc3F)C2)c(=O)n(-c2ccccc2)n1C (stereo not drawn) | inactive
O=C(Cc1ccccc1)NC1CCN(c2ccc3nnc(C4CC4)n3n2)C1 (stereo not drawn) | inactive
COc1cccc(CNC(=O)CN2C(=O)NC(c3ccc(Cl)cc3)C3=C2COC3=O)c1OC (stereo not drawn) | inconclusive: 50.1 µM [inhibitor, partial curve, poor fit]
O=C(Nc1ccccc1)O[C@@H]1CO[C@H]2[C@@H]1OC[C@@H]2n1nnnc1Sc1ccccc1 | inconclusive: 89.1 µM [inhibitor, partial curve, poor fit]
Clc1cccc(-c2cnc([C@@H]3COCCN3Cc3c[nH]c4ccccc34)[nH]2)c1 | inconclusive: 56.2 µM [inhibitor, partial curve, poor fit]
